In the supplement of paper PMC9446081:
The campaign covered roughly 39,000 compounds. About 220 (0.56%) showed activity. Some of the results follow.

Tested on: Escherichia coli K-12 BW25113
Experiment: relative growth (OD600 normalised to plate interquartile mean) (fraction); higher = less growth inhibition, active = 0.2 or less
Conditions: 50 µM; LB; incubation time: overnight (16-24 h)
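Note: static incubation at 37 °C against the wild-type strain, values averaged over two biological replicates.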

Row | Compound | relative growth
1 | C[C@H](CO)N1C[C@H](C)[C@H](CN(C)Cc2ccc(Oc3ccccc3)cc2)Oc2ccc(NC(=O)CCCN(C)C)cc2CC1=O | inactive: 1.02
2 | Cc1[nH]c(/C=C2\C(=O)Nc3ccc(S(=O)(=O)Cc4c(Cl)cccc4Cl)cc32)c(C)c1C(=O)N1CCC[C@@H]1CN1CCCC1 | inactive: 1.14
3 | COc1ccc(CN(C)C[C@@H]2Oc3ccc(NC(=O)CCN4CCOCC4)cc3C(=O)N([C@@H](C)CO)C[C@H]2C)cc1 | inactive: 1
4 | C[C@H](CO)N1C[C@H](C)[C@@H](CN(C)Cc2ccncc2)Oc2ccc(NS(=O)(=O)c3ccccc3)cc2CC1=O | inactive: 0.981
5 | COc1ccc(NC(=O)N(C)C[C@@H]2Oc3ccc(NC(=O)C4CC4)cc3CC(=O)N([C@H](C)CO)C[C@H]2C)cc1 | inactive: 0.984
6 | COc1ccc(CN(C)C[C@H]2Oc3c(NC(=O)C4CCOCC4)cccc3C(=O)N([C@H](C)CO)C[C@@H]2C)cc1 | inactive: 1
7 | C[C@@H]1CN([C@@H](C)CO)C(=O)Cc2cc(NC(=O)NC3CCCCC3)ccc2O[C@@H]1CN(C)Cc1ccc(-c2ccccc2)cc1 | inactive: 0.992
8 | Cn1ccc(C(=O)N2CC[C@@H]3OCCN(S(C)(=O)=O)[C@@H]3C2)n1 | inactive: 0.984
9 | C[C@@H]1CN([C@@H](C)CO)S(=O)(=O)c2ccc(-c3ccc(C(=O)N(C)C)cc3)cc2O[C@H]1CN(C)C(=O)C1CC1 | inactive: 1
10 | COc1cc(O)c2c(=O)c(OC)c(-c3ccc(OC)c(OC)c3)oc2c1 | inactive: 0.772
11 | C[C@H](CO)N1C[C@H](C)[C@H](CN(C)C(=O)Nc2ccc(F)cc2)Oc2ncc(-c3cccc(C(F)(F)F)c3)cc2C1=O | inactive: 1.02
12 | C[C@@H]1CN([C@@H](C)CO)C(=O)c2cccc(NC(=O)Nc3cccc4ccccc34)c2O[C@H]1CN(C)S(=O)(=O)c1ccc2c(c1)OCCCO2 | inactive: 1.01
13 | CN(CC(=O)Nc1cccc(S(=O)(=O)N2CCOCC2)c1)CC(=O)Nc1ccc(Cl)c(C(F)(F)F)c1 | inactive: 1
14 | C[C@H]1CCCCO[C@H](CN(C)CC2CCCCC2)[C@@H](C)CN([C@@H](C)CO)C(=O)c2cc(NS(=O)(=O)c3cccs3)ccc2O1 | inactive: 0.987
15 | C[C@H](CO)N1C[C@H](C)[C@H](CN(C)Cc2cccc(F)c2)OCc2ccccc2-c2c(n(C)c3ccccc23)C1=O | inactive: 1.02
16 | C[C@H]1CCCCO[C@H](CN(C)S(=O)(=O)c2cccs2)[C@@H](C)CN([C@@H](C)CO)C(=O)c2cc(NS(=O)(=O)c3ccc(Cl)cc3)ccc2O1 | inactive: 1.02
17 | Cc1ccc(S(=O)(=O)N(C)C[C@H]2Oc3ccc(NS(=O)(=O)c4ccccc4)cc3CC(=O)N([C@@H](C)CO)C[C@H]2C)cc1 | inactive: 0.993
18 | O=c1cc(-c2ccccc2)oc2ccccc12 | inactive: 0.995
19 | COc1ccc(-c2cccc(-c3nc(C(=O)NCC(F)(F)F)cc4c3[C@H](CCO)N([S@@](=O)C(C)(C)C)C4)c2)cc1 | inactive: 1.05
20 | C[C@@H]1CN([C@@H](C)CO)C(=O)Cc2cc(NS(=O)(=O)c3cccs3)ccc2O[C@H]1CN(C)S(C)(=O)=O | inactive: 0.99

Row | Compound | relative growth
21 | C[C@@H]1CN([C@H](C)CO)C(=O)c2c(c3ccccc3n2C)-c2ccccc2CO[C@H]1CN(C)Cc1ccccc1 | inactive: 1.01
22 | C[C@@H]1CN([C@H](C)CO)C(=O)c2cccc(NS(=O)(=O)c3cn(C)cn3)c2O[C@H]1CN(C)C(=O)Nc1ccc(F)cc1 | inactive: 1.01
23 | COc1ccc(S(=O)(=O)Nc2ccc3c(c2)C(=O)N([C@H](C)CO)C[C@@H](C)[C@@H](CN(C)C(=O)CCC(F)(F)F)OCCCC[C@H](C)O3)cc1 | inactive: 0.991
24 | C[N+](C)(C)CCCCCCNC(=O)[C@@H]1C[C@@H]2C(=O)N[C@@H](Cc3ccccc3)C(=O)N2[C@@H]1c1cccc(OCCO)c1 | inactive: 0.975
25 | C[C@@H]1CCCCO[C@@H](CN(C)C(=O)Nc2ccccc2)[C@@H](C)CN([C@H](C)CO)C(=O)c2cc(NS(=O)(=O)c3ccc(Cl)cc3)ccc2O1 | inactive: 0.996
26 | CCS(=O)(=O)N1C[C@]2(C1)CN([C@H](CO)c1c2c2ccc(cc2n1C)OC)C(=O)Nc1c(noc1C)C | inactive: 0.981
27 | C[C@H](CO)N1C[C@H](C)[C@@H](CN(C)Cc2ccc(Oc3ccccc3)cc2)OCc2ccccc2-c2c(n(C)c3ccccc23)C1=O | inactive: 1.01
28 | C[C@@H]1CCCCO[C@H](CN(C)S(=O)(=O)c2cccs2)[C@@H](C)CN([C@H](C)CO)C(=O)c2cc(NS(=O)(=O)c3cn(C)cn3)ccc2O1 | inactive: 0.974
29 | COc1ccccc1C#Cc1ccc2c(c1)O[C@H](CN(C)Cc1cccnc1)[C@H](C)CN([C@H](C)CO)S2(=O)=O | inactive: 1.05
30 | COc1ccc(S(=O)(=O)Nc2ccc3c(c2)C(=O)N([C@H](C)CO)C[C@H](C)[C@H](CN(C)Cc2ccc(-c4ccccc4)cc2)O3)cc1 | inactive: 0.918
31 | Cc1cc(C(=O)Nc2cccc3c2O[C@@H](CN(C)C(=O)Nc2ccccc2)[C@@H](C)CN([C@@H](C)CO)C3=O)n(C)n1 | inactive: 0.932
32 | C[C@@H]1CN([C@H](C)CN(C)C)C(=O)c2cc(NC(=O)Cc3cn(C)c4ccccc34)ccc2O[C@H]1CN(C)S(=O)(=O)c1ccc(Cl)cc1 | inactive: 0.976
33 | C[C@@H]1CCCCO[C@H](CN(C)Cc2ccc(C(F)(F)F)cc2)[C@H](C)CN([C@@H](C)CO)C(=O)c2cc(NC(=O)c3ccncc3)ccc2O1 | inactive: 0.984
34 | Cc1cccc(C)c1OCC(C)N.Cl (centres undefined) | inactive: 0.896
35 | O=C(O)CSc1ncnc2nc[nH]c12 | inactive: 1.01
36 | Cc1noc(C)c1NC(=O)Nc1ccc2c(c1)CC(=O)N([C@H](C)CO)C[C@@H](C)[C@@H](CN(C)Cc1ccc(C(F)(F)F)cc1)O2 | inactive: 1
37 | Cc1noc(C)c1NC(=O)Nc1cccc2c1O[C@@H](CN(C)C(=O)NC(C)C)[C@H](C)CN([C@@H](C)CO)C2=O | inactive: 0.981
38 | Cc1noc(C)c1S(=O)(=O)Nc1ccc2c(c1)C(=O)N([C@@H](C)CO)C[C@H](C)[C@H](CN(C)S(C)(=O)=O)O2 | inactive: 0.999
39 | COc1ccc(NC(=O)N(C)C[C@H]2Oc3ccc(NS(=O)(=O)c4c(C)noc4C)cc3CC(=O)N([C@H](C)CO)C[C@@H]2C)cc1 | inactive: 1.03
40 | C[C@@H]1CN([C@@H](C)CO)S(=O)(=O)c2ccc(C3=CCCC3)cc2O[C@@H]1CN(C)S(=O)(=O)c1cn(C)cn1 | inactive: 0.999

Row | Compound | relative growth
41 | Cc1ccc(C(=O)N(CCCN)[C@@H](c2oc3cc(Cl)ccc3c(=O)c2Cc2ccccc2)C(C)C)cc1 | inactive: 0.987
42 | COc1ccc(NC(=O)N(C)C[C@H]2OCc3ccccc3-c3c(n(C)c4ccccc34)C(=O)N([C@H](C)CO)C[C@@H]2C)cc1 | inactive: 1.01
43 | C[C@@H]1CCCCO[C@H](CN(C)CC2CCCCC2)[C@@H](C)CN([C@H](C)CO)C(=O)c2cc(NS(=O)(=O)c3ccc(Cl)cc3)ccc2O1 | inactive: 1.01
44 | C[C@H](CO)N1C[C@H](C)[C@@H](CN(C)S(=O)(=O)c2cn(C)cn2)Oc2c(NS(=O)(=O)c3ccc(Cl)cc3)cccc2C1=O | inactive: 1
45 | C[C@@H]1CCCCO[C@@H](CN(C)C(=O)c2ccccc2)[C@H](C)CN([C@H](C)CO)C(=O)c2cc(NC(=O)Nc3ccc(C(F)(F)F)cc3)ccc2O1 | inactive: 0.999
46 | O=S(=O)(N1CCOCC1)n1nnc2ccccc21 | inactive: 1.03
47 | C[C@H]1CN([C@@H](C)CO)S(=O)(=O)c2ccc(C#Cc3ccc(F)cc3)cc2O[C@H]1CN(C)S(=O)(=O)c1ccc(F)cc1 | inactive: 1.07
48 | COCC(=O)Nc1ccc2c(c1)C(=O)N(C)C[C@@H](OC)[C@@H](C)CN(C(=O)Cc1cccnc1)[C@H](C)CO2 | inactive: 1.03
49 | CCOC(=O)C1CCN(C(=O)CNC(=O)Cc2n[nH]c(=O)c3ccccc23)CC1 | inactive: 1.01
50 | COc1ccc(S(=O)(=O)Nc2ccc3c(c2)C(=O)N([C@H](C)CO)C[C@H](C)[C@H](CN(C)S(=O)(=O)c2ccc(Cl)cc2)OCCCC[C@H](C)O3)cc1 | inactive: 1.01
51 | C=CC[C@@H](CC(=O)N[C@@H](CO)Cc1ccccc1)C(=O)N[C@H](C)COC(=O)[C@@H](CC=C)CC(=O)OC(C)(C)C | inactive: 0.954
52 | Cc1noc(C)c1NC(=O)Nc1ccc2c(c1)C(=O)N([C@H](C)CO)C[C@H](C)[C@H](CN(C)C(=O)Nc1ccccc1)OCCCC[C@H](C)O2 | inactive: 1.01
53 | C[C@@H]1CN([C@@H](C)CO)C(=O)c2cc(NC(=O)Nc3ccc(C(F)(F)F)cc3)ccc2O[C@H]1CN(C)Cc1ccc(C(=O)O)cc1 | inactive: 0.974
54 | COc1ccc(S(=O)(=O)Nc2ccc3c(c2)C(=O)N([C@@H](C)CO)C[C@@H](C)[C@H](CN(C)S(=O)(=O)c2ccc(Cl)cc2)OCCCC[C@@H](C)O3)cc1 | inactive: 1.03
55 | COc1cc2nc(N3CCN(C(=O)c4ccco4)CC3)nc(N)c2cc1OC.Cl | inactive: 1.02
56 | C[C@H](CO)N1C[C@H](C)[C@@H](CN(C)Cc2ccc(C(=O)Nc3ccccc3N)cc2)Oc2ccc(NS(C)(=O)=O)cc2C1=O | inactive: 0.997
57 | Nc1nonc1/C(=N/O)N1CCCCC1 | inactive: 0.984
58 | C[C@@H]1CN([C@@H](C)CO)S(=O)(=O)c2ccc(C3=CCCC3)cc2O[C@H]1CN(C)S(=O)(=O)c1cn(C)cn1 | inactive: 1.02
59 | CN(C)C(=O)N1CCC2(CC1)CC1(CCN(S(=O)(=O)C3CC3)CC1)N(C)C2=O | inactive: 0.982
